# In PubChem BioAssay AID686979 (National Center for Advancing Translational Sciences (NCATS), 2013):
# Hit rate of the full screen: of about 420,000 compounds, about 50,000 (12%) were called active. Inconclusive results, whose numbers are uncertain, are shown with a selection of clear calls. The call rests on the fitted dose curve; in most records, active means well fitted inhibition curve with a large enough effect; inconclusive means small, poorly fitted or top-dose-only effect; inactive means flat fitted curve, though single readings scatter. Potencies of inconclusive entries are left out as doubtful fits.
# Assay: qHTS for Inhibitors of human tyrosyl-DNA phosphodiesterase 1 (TDP1): qHTS in cells in presence of CPT; further: nearly all actives have a fitted effect of over 55% in size
# Conditions: chicken DT40 Tdp1-/-;hTDP1 cells + 20 nM CPT, ATP luminescence, 48 h; series mostly up to 46.2 µM
# Outline: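 Cell growth measured by CellTiter-Glo luminescence after a minimum 48 h, 37 C compound exposure with 20 nM CPT in Tdp1-knockout DT40 cells stably expressing hTDP1, seeded 400/well; qHTS titration format.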
# Potency means the concentration at half of the fitted maximal effect; tags describe the fitted curve by direction and shape.
row,SMILES,Potency
1,CCc1nc2c(cnn2-c2ccc(Cl)cc2)c(=O)n1-c1ccc(OC)c(Cl)c1,"inconclusive [inhibitor, single point]"
2,COCCN(CC(=O)Nc1cccc(C)c1C)C(=O)c1ccc(S(=O)(=O)N2CCOCC2)cc1,inactive
3,Nc1cc(C(=O)N2CCN(c3cccc(Cl)c3)CC2)ccc1N1CC2CC(C1)c1cccc(=O)n1C2 (stereo unspecified),"inconclusive [inhibitor, single point]"
4,O=S(=O)(NCC(c1ccco1)N1CCN(c2ccccc2F)CC1)c1ccc2c(c1)OCCO2 (stereo unspecified),"inconclusive [inhibitor, single point]"
5,COc1ccc(CNc2ccc([N+](=O)[O-])cc2C)cc1,"inconclusive [inhibitor, single point]"
6,COc1ccc(CN2C(=O)C(C)Nc3ncnc(N4CCOCC4)c32)cc1 (stereo unspecified),"inconclusive [inhibitor, single point]"
7,CC(=O)Nc1ccc(Nc2ccc3nonc3c2[N+](=O)[O-])cc1,inactive
8,COc1ccccc1N1CCN(C(=O)c2cc(-c3ccc(Cl)cc3)on2)CC1,active: 22.4 µM
9,CCOc1ccc(N2CC(c3nc4ccccc4n3Cc3cccc(C)c3)CC2=O)cc1 (stereo unspecified),"inconclusive [inhibitor, single point]"
10,O=C(N/N=C/c1ccc(OCC2COCCO2)cc1)c1ccc(Br)cc1 (stereo unspecified),"inconclusive [inhibitor, partial curve, poor fit]"
11,Cc1ccc(-c2csc(N3CCN(CCCn4c(-c5ccncc5)nc5ccccc54)CC3)n2)cc1,active: 5.8 µM
12,Cc1ccc(-n2c(C)nc3c(cnn3-c3ccccc3Cl)c2=O)cc1C,inactive
13,Cc1ccccc1CNC(=O)c1ccc(CS(=O)Cc2ccc(Cl)cc2)o1 (stereo unspecified),"inconclusive [inhibitor, single point]"
14,O=S(=O)(Nc1ccc(O)c2ccccc12)c1ccc(F)cc1,active: 11.6 µM
15,CC1CCCN(c2ccc(C(=O)NCc3ccccc3)cn2)C1 (stereo unspecified),inactive
16,CNC(=S)N/N=C1\CC(c2ccccc2)Oc2ccccc21 (stereo unspecified),active: 5.17 µM
17,COc1ccc(-n2c(=O)c3sc4ccccc4c3n(CC(=O)NCc3ccccc3)c2=O)cc1,"inconclusive [inhibitor, partial curve]"
18,O=C(CC1SC(=O)N(c2ccccc2)C1=O)Nc1ccccc1 (stereo unspecified),active: 16.4 µM
19,CCCn1c(CCC(=O)Nc2cccc(CC)c2)nc2cccnc21,active: 16.4 µM
20,O=c1c([N+](=O)[O-])cccn1Cc1cccc(Br)c1,inactive
21,NC(=S)N/N=C/c1cccnc1,inactive
